# The campaign covered roughly 310,000 compounds. About 2,200 (0.71%) showed an effect of 50% or more. The effect is printed as a negative number. This is one part of the list.
# Biological target: human ether-à-go-go-related gene (hERG) potassium channel (human, UniProt Q12809)
# Experiment: primary screen, population patch clamp on CHO cells stably expressing hERG
# human ether-à-go-go-related gene (hERG) potassium channel, sequence (Q12809 whole entry, looked up): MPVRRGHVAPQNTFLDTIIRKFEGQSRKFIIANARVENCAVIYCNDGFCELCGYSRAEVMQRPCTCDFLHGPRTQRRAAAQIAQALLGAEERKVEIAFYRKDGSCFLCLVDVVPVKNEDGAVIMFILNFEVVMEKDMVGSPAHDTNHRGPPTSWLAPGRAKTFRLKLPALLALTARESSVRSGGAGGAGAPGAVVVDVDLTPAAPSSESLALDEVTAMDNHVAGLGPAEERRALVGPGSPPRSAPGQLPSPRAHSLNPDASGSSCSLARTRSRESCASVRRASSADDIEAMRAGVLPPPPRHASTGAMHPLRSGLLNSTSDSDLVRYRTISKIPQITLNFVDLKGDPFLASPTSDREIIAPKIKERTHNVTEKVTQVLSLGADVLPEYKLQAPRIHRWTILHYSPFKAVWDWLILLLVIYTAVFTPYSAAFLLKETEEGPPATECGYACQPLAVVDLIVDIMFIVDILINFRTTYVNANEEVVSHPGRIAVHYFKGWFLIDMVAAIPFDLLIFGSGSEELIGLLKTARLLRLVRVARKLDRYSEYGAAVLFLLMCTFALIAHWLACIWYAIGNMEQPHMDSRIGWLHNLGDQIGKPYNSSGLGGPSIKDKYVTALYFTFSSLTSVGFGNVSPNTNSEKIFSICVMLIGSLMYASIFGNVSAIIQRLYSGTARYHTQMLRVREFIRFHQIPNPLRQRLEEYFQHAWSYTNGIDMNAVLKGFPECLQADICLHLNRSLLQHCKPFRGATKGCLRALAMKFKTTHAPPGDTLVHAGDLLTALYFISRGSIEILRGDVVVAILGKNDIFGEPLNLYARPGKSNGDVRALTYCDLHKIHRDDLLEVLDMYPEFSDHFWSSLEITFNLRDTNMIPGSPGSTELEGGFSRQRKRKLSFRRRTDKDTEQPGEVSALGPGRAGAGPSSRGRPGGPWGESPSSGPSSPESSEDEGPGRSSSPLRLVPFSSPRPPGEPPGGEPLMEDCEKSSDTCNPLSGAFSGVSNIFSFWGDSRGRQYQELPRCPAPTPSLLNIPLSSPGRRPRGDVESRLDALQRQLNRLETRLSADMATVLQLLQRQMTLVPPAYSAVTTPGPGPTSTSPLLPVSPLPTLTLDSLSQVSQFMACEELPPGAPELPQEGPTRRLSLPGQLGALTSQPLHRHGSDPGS
row,Compound,"hERG current change (%, negative = inhibition) at 1uM"
1,COc1ccccc1Sc1ccccc1CC(C)N.Cl.O (centres unmarked),5.96%
2,OCCNCCCCOc1ccccc1F,0.948%
3,CCn1ccnc1CN1CCCC(C(=O)c2cc(C)c(OC)c(C)c2)C1 (centres unmarked),0.615%
4,Br.COC(=O)Cn1c(=N)n(CCN2CCCCC2)c2ccccc21,-1.35%
5,Clc1ccc(OCCCN2CCCC2)cc1Cl.O=C(O)C(=O)O,-20.1%
6,COc1ccc(Cl)cc1NC(=O)CSc1sc2c(O)cc(=O)[nH]c2c1C#N,12%
7,CCc1cccc(NC(=O)CSC2=NS(=O)(=O)c3ccccc32)c1,6.14%
8,O=c1c(Cc2ccc(F)cc2)c(O)ccn1CCCn1ccnc1,20.5%
9,Cc1ccc(C)c(OCC(=O)Nc2cccc(C(=O)O)c2)c1C,0.29%
10,O=C(Nc1ccc(Oc2ccsc2C(=O)O)cc1)c1ccccc1,11.8%
11,Cc1cccc(C)c1NC(=O)COC(=O)c1c(C)nn(-c2ccccc2)c1C,8.88%
12,O=C(CSc1nc(-c2ccc(Cl)cc2)[nH]c(=O)n1)Nc1cccc(Cl)c1,14.6%
13,O=C(Nc1cccc(Cl)c1)C1CCN(C(=O)c2cccs2)CC1,4.41%
14,CCCC(=O)Nc1ccc2nn(-c3ccc(OC)cc3)nc2c1,9.9%
15,CCN(CC)C(=O)c1scc2c1OCCO2,7.95%
16,CCOc1ccc(NC(=O)Nc2ccc(N(C)C(C)=O)cc2)cc1,4.66%
17,Cc1[nH]n(-c2ncc(-c3ccccc3)s2)c(=O)c1C(c1ccc(Cl)cc1)C(C#N)C#N (centres unmarked),9.79%
18,COc1ccc(/C=N\NC(=O)CC(=O)Nc2cccc(Cl)c2)cc1OC,3.74%
19,Cc1ccc(C(=O)N/C(=C\c2ccc(-c3ccccc3[N+](=O)[O-])o2)C(=O)NCCCN2CCOCC2)cc1,-11.2%
20,CSc1ncc(C(C)=O)c(C)n1,9.21%

row,Compound,"hERG current change (%, negative = inhibition) at 1uM"
1,C=CCn1c(SCC(=O)NC2CCCCC2)nnc1-c1sc(N)nc1C,1.71%
2,CN1C2=C(C#N)C(c3ccccc3)(C(F)(F)F)NC(=O)N2c2ccccc21 (centres unmarked),14.1%
3,CN1CCOCCOc2ccccc2OCCOCC1,17.5%
4,Cc1nc(C)c(NC(=O)OC(C)C)cc1NC(=O)OC(C)C,13.1%
5,COc1ccc(/C=C/C(=O)c2cc(Cl)ccc2O)c(OC)c1,8.33%
6,CCOc1ccc(NC(=O)COc2ccc(C(=O)NCC3CCCO3)cc2OC)cc1 (centres unmarked),-0.29%
7,CCS(=O)(=O)N1CCC(C(=O)Oc2ccccc2OC)CC1,15.6%
8,COc1ccc(NC(=S)NCCc2ccc(F)cc2)c(OC)c1,5.44%
9,COc1ccc(S(=O)(=O)NC(N)=NCCc2ccccc2OC)cc1,2.13%
10,CS(=O)(=O)N1CCCC(C(=O)NCCc2ccccc2)C1 (centres unmarked),-3.5%
11,Oc1ccc(C[C@H]2CNCCN2CCc2cccc3ccccc23)cc1,-1.85%
12,CN1C(=O)CC(=O)N(C)c2cc(S(=O)(=O)N(C)Cc3ccccc3)ccc21,7.47%
13,CN(Cc1ccccc1)C(=O)c1ccc(Cl)c([N+](=O)[O-])c1,-18.2%
14,Cc1ccc(S(=O)(=O)CCC(=O)OCc2ccc(S(=O)(=O)C(C)C)cc2)cc1,9.22%
15,Cc1cc(=O)n2[nH]c(-c3ccco3)nc2n1,13.9%
16,CCCC1=C([O-])C2N=CC=CC2=[N+](c2ccccn2)C1=O (centres unmarked),7.13%
17,CCN(C(=O)Cn1nc(C)n2c(cc3cc(C)ccc32)c1=O)c1ccccc1,-15.9%
18,C=CCSc1nc(O)c(CC)c(=O)n1C(C)CC (centres unmarked),5.6%
19,O=C(Cc1cccc2ccccc12)Nc1ccc(OC(F)F)c(Cl)c1,14.7%
20,N#CNC(=Nc1cccc(C(F)(F)F)c1)SCc1ccc(C(=O)O)cc1,9.54%

row,Compound,"hERG current change (%, negative = inhibition) at 1uM"
1,CC1(C)Cc2c(sc(/N=C/N3CCCCCC3)c2C#N)C(C)(C)N1,14.8%
2,O=C(Nc1nc2ccccc2[nH]1)c1ccccc1[N+](=O)[O-],0.789%
3,CCc1ccc(C(=O)NC(CCSC)C(=O)OC)cc1 (centres unmarked),8.97%
4,CCOC(=O)C[n+]1c(C)sc2ccc(OC)cc21.[Br-],12.8%
5,COc1cccc(-c2cc(C(=O)NCC3CCCO3)c3cc(Br)cc(C)c3n2)c1 (centres unmarked),17.4%
6,Cc1ccc(N(C(=O)c2csnn2)C(C(=O)NC2CCCC2)c2cccnc2)cc1 (centres unmarked),8.22%
7,CCOc1nc(NCCC2=CCCCC2)nc(N2CCOCC2)n1,1.87%
8,O=[N+]([O-])c1ccc(O)c(/C=N\N=C2c3ccccc3-c3ccccc32)c1,9.91%
9,O=C(c1ccco1)N1N=C(c2cccs2)CC1c1ccccc1O (centres unmarked),14.2%
10,COc1cc(OC)cc(C(=O)n2cnnc2N)c1,1.66%
11,CCC(=O)Nc1nc(C)cc(SCC(=O)OC)n1,16.3%
12,CC(=O)c1ccc(N2CCN(S(=O)(=O)c3ccc4c(c3)CC(=O)N4)CC2)cc1,8.48%
13,CCN(CC)S(=O)(=O)c1ccc(OC)c(NC(=O)OCc2ccccc2)c1,2%
14,O=C(Nc1nc2ccc(F)cc2s1)C1CC(=O)N(c2ccc3c(c2)OCCO3)C1 (centres unmarked),6.02%
15,Nc1nn(-c2ccccc2)c(N)c1N=Nc1ccc2c(c1)OCO2,0.368%
16,O=C(CSc1nc2c(c(=O)[nH]1)CCC2)Nc1cccc(Cl)c1,5.77%
17,O=S(=O)(N1CCOCC1)N1CCCN(S(=O)(=O)N2CCOCC2)CC1,2.15%
18,Cc1ccccc1NC(=O)c1sc2nc(N3CCOCC3)c3c(c2c1N)CCCC3,13.6%
19,Cc1ccc(S(=O)(=O)NCCCCCC(=O)NCCc2ccccc2)cc1,14%
